Laboratory results taken from PubChem BioAssay (Tox21).
The inconclusive results got no clear call from the source; some entries with a clear call stand among them for comparison. For some of these results: Where the call is inconclusive, the potency comes from a doubtful curve fit. The source made the active and inactive calls. Unless noted, the call rests on the fitted dose curve; in most records, active means well fitted curve in the direction sought with a large enough effect in the repeat runs; inconclusive means weak or mixed curves; inactive means no such curve, though single readings can be large; an effect the other way counts as inactive or inconclusive. Bridge positions count the residues as written; N and C are the ends. Square brackets hold non-standard residues; d marks the D form. Peptide text beside a SMILES is read from it. * marks the point of attachment. ξ: configuration not given here. d(aThr) = C[C@@H](O)[C@@H](N)C(=O)O; ξThr(3R) = C[C@@H](O)C(N)C(=O)O; X2 = CC[C@@H](C)CCCCC(=O)*; dDab = NCC[C@@H](N)C(=O)O

Assays:
[1] = qHTS assay for small molecule agonists of the p53 signaling pathway (AID 651631; calls by dose curve; further: nearly all actives have a fitted effect of over 15% in size; further: potency means the concentration at half of the fitted maximal effect; on activation: on the % scale 0 is the no-effect control and ±100 the full control effect); conditions: HCT-116 p53RE-bla reporter, beta-lactamase FRET ratio, 16 h; activation: at 73.3 µM (top of the series) unless noted
Summary of the method: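 HCT-116 cells carrying a beta-lactamase reporter under p53 response elements were dosed with compound for 16 h at 37 °C. LiveBLAzer B/G FRET substrate was then added for 2 h at room temperature, and fluorescence intensity was read to detect pathway agonism.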

[2] = qHTS assay for small molecule disruptors of the mitochondrial membrane potential (AID 720635); conditions: HepG2 mitochondrial membrane potential, Mito-MPS dye ratio; ratio activity, negative = MMP loss: at 83.2 µM (top of the series) unless noted; further: potency means the concentration at half of the fitted maximal effect
Summary of the method: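 Mitochondrial membrane potential tracked with Mito-MPS dye, red aggregates (ex 540/em 590 nm) against green monomers (ex 490/em 535 nm). Compound treatment 1 hr at 37C, dye 30 min in HepG2.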

[3] = target: Glucocorticoid receptor (Homo sapiens) (UniProt P04150); test: qHTS assay to identify small molecule antagonists of the glucocorticoid receptor (GR) signaling pathway (AID 720692; active means well fitted inhibition curve with a large enough effect in the signal ratio in the repeat runs, not every such curve was filed as active; inconclusive means weak or mixed curves, or effect the other way; inactive means no such curve, though single readings can be large or run the other way; the % refers to the signal ratio; further: on the % scale 0 is the no-effect control and ±100 the full control effect); conditions: GR-bla HeLa, beta-lactamase FRET ratio, dexamethasone-stimulated, 18 h; activity change, negative = inhibition: at 58.5 µM (top of the series) unless noted
Chain of UniProt P04150 (P04150 whole entry, looked up): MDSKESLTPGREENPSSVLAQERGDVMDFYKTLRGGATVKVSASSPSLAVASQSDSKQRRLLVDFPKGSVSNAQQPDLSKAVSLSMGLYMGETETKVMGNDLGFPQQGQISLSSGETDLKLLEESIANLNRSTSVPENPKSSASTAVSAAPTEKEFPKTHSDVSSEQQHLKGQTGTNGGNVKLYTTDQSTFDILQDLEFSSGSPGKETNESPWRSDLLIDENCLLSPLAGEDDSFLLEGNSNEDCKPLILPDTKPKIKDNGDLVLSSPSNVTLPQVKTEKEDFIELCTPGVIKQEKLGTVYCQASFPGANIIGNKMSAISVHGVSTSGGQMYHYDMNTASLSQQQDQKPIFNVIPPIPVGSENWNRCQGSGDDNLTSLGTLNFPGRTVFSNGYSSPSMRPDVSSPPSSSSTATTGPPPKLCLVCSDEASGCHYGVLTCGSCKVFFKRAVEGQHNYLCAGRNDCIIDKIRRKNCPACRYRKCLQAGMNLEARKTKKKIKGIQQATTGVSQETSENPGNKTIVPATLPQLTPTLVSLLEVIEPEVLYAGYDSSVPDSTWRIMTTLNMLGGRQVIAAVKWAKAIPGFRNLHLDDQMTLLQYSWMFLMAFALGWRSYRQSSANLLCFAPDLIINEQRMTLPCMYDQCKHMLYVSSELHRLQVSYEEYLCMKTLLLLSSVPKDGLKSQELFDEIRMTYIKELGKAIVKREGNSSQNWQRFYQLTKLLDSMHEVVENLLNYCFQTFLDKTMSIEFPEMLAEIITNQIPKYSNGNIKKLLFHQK
Summary of the method: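 GR-bla HeLa cells carrying a GRE-driven beta-lactamase reporter received compound after 4 h plating, then dexamethasone (5 nM final). After 18 h at 37C, the FRET substrate was loaded for 2 h at room temperature and fluorescence read.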

[4] = qHTS assay for identifying genotoxic compounds that show differential cytotoxicity against isogenic chicken DT40 cell lines with known DNA damage response pathways - Rad54/Ku70 mutant cell line (AID 743015); conditions: DT40 Rad54/Ku70 mutant viability, CellTiter-Glo, 40 h; activity change, negative = cytotoxicity: at 66.8 µM (top of the series) unless noted; further: nearly all actives have a fitted effect of over 60% in size; further: potency means the concentration at half of the fitted maximal effect
[5] = target: Androgen receptor (Homo sapiens) (UniProt P10275); test: qHTS assay to identify small molecule antagonists of the androgen receptor (AR) signaling pathway (AID 743035; active means well fitted inhibition curve with a large enough effect in the signal ratio in the repeat runs, not every such curve was filed as active; inconclusive means weak or mixed curves, or effect the other way; inactive means no such curve, though single readings can be large or run the other way; the % refers to the signal ratio; further: potency means the concentration at half of the fitted maximal effect); conditions: HEK293 AR-UAS-bla, R1881-stimulated, beta-lactamase FRET, 16 h; activity change, negative = inhibition: at 58.5 µM (top of the series) unless noted
Chain of UniProt P10275 (P10275 whole entry, looked up): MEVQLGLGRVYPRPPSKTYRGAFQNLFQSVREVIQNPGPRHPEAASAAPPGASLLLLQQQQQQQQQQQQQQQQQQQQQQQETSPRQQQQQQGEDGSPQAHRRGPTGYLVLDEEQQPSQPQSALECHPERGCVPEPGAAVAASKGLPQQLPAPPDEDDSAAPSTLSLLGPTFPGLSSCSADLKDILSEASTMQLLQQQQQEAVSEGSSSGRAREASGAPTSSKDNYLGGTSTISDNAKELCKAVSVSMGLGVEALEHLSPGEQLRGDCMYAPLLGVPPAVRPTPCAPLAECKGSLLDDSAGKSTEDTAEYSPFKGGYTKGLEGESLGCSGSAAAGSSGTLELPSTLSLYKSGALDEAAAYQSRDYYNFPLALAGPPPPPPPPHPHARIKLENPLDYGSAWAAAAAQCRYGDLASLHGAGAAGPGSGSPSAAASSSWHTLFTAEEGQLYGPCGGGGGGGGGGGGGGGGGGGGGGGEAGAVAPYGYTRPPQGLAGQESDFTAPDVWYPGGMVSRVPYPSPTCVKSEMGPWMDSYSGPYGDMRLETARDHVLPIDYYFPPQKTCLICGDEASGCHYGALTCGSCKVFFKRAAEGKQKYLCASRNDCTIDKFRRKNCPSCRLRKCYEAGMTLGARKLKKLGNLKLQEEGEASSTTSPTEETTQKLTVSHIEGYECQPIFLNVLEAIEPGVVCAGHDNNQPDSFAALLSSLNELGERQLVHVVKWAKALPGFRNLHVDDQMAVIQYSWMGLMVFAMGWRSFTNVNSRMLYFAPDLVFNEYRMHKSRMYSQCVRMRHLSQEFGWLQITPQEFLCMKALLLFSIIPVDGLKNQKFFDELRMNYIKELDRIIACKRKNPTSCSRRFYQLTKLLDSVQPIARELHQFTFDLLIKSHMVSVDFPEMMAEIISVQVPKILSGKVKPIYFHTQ
Summary of the method: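 HEK293 cells stably carrying UAS-beta-lactamase reporter, 2,000/well, given compounds plus R1881 agonist and incubated 16 h at 37C. LiveBLAzer B/G FRET substrate then added for 2 h at room temperature before fluorescence reading.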

[6] = target: Androgen receptor (Homo sapiens) (UniProt P10275); test: qHTS assay to identify small molecule antagonists of the androgen receptor (AR) signaling pathway using the MDA cell line (AID 743042; further: potency means the concentration at half of the fitted maximal effect; nearly all actives have a fitted effect of over 55% in size)
Summary of the method: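 Antagonist mode: compounds plus R1881 agonist added to MDA-kb2 AR-luc cells, incubated 16 h at 37C. Luciferase reporter luminescence quantified, with multiplexed CellTiter-Fluor readout for cell viability.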

[7] = qHTS assay to identify small molecule antagonists of the thyroid receptor (TR) signaling pathway - cell viability counter screen (AID 743064); conditions: GH3.TRE-Luc viability, CellTiter-Fluor, 24 h; activity change, negative = cytotoxic: at 70.3 µM (top of the series) unless noted; further: nearly all actives have a fitted effect of over 50% in size; further: potency means the concentration at half of the fitted maximal effect
Summary of the method: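 GH3.TRE-Luc rat pituitary cells dosed after 4 hr plating, co-stimulated with T3 at 1 nM final, incubated 23.5 h at 37 C. Viability measured in the same wells by CellTiter-Fluor fluorescence after 30 min further at 37 C.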

[8] = qHTS assay to identify small molecule antagonists of the thyroid receptor (TR) signaling pathway (AID 743065); further: nearly all actives have a fitted effect of over 55% in size; further: potency means the concentration at half of the fitted maximal effect
Summary of the method: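 Antagonism measured as loss of luciferase signal in GH3 cells stably carrying a TRE-luciferase reporter, co-treated with compound and T3 (1 nM final) for 23.5 h at 37 C. Viability was read in the same well by CellTiter-Fluor.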

[9] = test system: thyroid hormone receptor (rat, GH3 cells); test: qHTS assay to identify small molecule agonists of the thyroid receptor (TR) signaling pathway (AID 743066; calls by dose curve; further: potency means the concentration at half of the fitted maximal effect); conditions: GH3.TRE-Luc cells, TR agonist luciferase, 24 h; activation: at 83.9 µM (top of the series) unless noted
Aromatase (Homo sapiens) = Aromatase (Homo sapiens) (UniProt P11511); test: qHTS assay to identify aromatase inhibitors (AID 743083); further: potency means the concentration at half of the fitted maximal effect; nearly all actives have a fitted effect of over 55% in size
Chain of UniProt P11511 (P11511 whole entry, looked up): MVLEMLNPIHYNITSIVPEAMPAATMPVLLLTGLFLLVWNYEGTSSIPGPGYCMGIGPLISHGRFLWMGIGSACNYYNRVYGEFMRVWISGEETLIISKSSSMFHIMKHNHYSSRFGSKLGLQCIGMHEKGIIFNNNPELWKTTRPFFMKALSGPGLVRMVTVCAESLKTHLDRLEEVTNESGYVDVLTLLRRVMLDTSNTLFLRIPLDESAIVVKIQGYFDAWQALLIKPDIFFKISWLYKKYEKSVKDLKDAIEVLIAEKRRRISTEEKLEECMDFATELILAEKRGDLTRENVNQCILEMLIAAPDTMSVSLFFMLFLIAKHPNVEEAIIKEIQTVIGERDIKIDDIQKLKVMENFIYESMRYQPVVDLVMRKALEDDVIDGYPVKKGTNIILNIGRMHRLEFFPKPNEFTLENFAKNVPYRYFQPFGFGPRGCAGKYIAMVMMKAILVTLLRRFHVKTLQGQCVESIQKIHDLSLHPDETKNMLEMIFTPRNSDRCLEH

[10] = qHTS assay to identify small molecule that activate the aryl hydrocarbon receptor (AhR) signaling pathway - cell viability counter screen (AID 743086);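 further: HepG2 liver cells carrying the AhR DRE luciferase reporter; on the % scale 0 is the no-effect control and ±100 the full control effect; nearly all actives have a fitted effect of over 45% in size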
Summary of the method: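 Cytotoxicity counter screen: CellTiter-Fluor signal (30 min, 37 C) in 4000 HepG2 cells/well carrying the DRE-luciferase reporter, following 24 h compound exposure at 37 C.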

[11] = target: Peroxisome proliferator-activated receptor gamma (Homo sapiens) (UniProt P37231); test: qHTS assay to identify small molecule agonists of the peroxisome proliferator-activated receptor gamma (PPARg) signaling pathway (AID 743094; active means well fitted activation curve with a large enough effect in the signal ratio in the repeat runs, not every such curve was filed as active; inconclusive means weak or mixed curves, or effect the other way; inactive means no such curve, though single readings can be large or run the other way; the % refers to the signal ratio; further: on the % scale 0 is the no-effect control and ±100 the full control effect); conditions: HEK293H PPARg-UAS-bla, beta-lactamase FRET ratio, 17 h; activation: at 57 µM (top of the series) unless noted
Chain of UniProt P37231 (P37231 whole entry, looked up): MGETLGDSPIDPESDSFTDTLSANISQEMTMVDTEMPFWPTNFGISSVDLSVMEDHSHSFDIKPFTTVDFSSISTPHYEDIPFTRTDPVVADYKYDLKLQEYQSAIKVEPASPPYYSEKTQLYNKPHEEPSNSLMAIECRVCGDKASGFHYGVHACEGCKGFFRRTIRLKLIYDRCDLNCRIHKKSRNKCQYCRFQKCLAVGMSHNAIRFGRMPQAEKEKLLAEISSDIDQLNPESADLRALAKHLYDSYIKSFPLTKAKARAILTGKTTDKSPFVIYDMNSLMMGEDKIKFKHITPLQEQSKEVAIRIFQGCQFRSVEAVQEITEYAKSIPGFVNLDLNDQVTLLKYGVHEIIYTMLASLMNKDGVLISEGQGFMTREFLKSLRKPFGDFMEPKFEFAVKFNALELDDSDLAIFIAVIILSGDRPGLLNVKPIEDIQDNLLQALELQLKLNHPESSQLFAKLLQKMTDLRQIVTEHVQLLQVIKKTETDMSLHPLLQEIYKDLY
Summary of the method: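 GeneBLAzer PPARg UAS-bla HEK293H cells were plated, rested 5 h, then exposed to compounds for 17 h at 37C. Beta-lactamase activity was read by LiveBLAzer B/G FRET substrate fluorescence after 1 h at room temperature.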

[12] = qHTS assay for identifying genotoxic compounds that show differential cytotoxicity against isogenic chicken DT40 cell lines with known DNA damage response pathways - Rev3 mutant cell line (AID 743014); conditions: chicken DT40 Rev3-/- viability, CellTiter-Glo, 40 h; activity, negative = cytotoxicity: at 68.4 µM (top of the series) unless noted; further: nearly all actives have a fitted effect of over 55% in size; further: potency means the concentration at half of the fitted maximal effect
[13] = qHTS assay to identify small molecule antagonists of the estrogen receptor alpha (ER-alpha) signaling pathway - cell viability counter screen (AID 743074; calls by dose curve;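 further: HEK293 cells carrying ER-alpha-UAS-bla reporter stimulated with 17beta-estradiol; potency means the concentration at half of the fitted maximal effect; nearly all actives have a fitted effect of over 45% in size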)
[14] = target: Estrogen receptor (Homo sapiens) (UniProt P03372); test: qHTS assay to identify small molecule agonists of the estrogen receptor alpha (ER-alpha) signaling pathway using the BG1 cell line (AID 743079); conditions: BG1Luc4E2 cells, ERE-luciferase agonist, 22 h; activation: at 70.3 µM (top of the series) unless noted; further: nearly all actives have a fitted effect of over 20% in size; further: potency means the concentration at half of the fitted maximal effect
Chain of UniProt P03372 (P03372 whole entry, looked up): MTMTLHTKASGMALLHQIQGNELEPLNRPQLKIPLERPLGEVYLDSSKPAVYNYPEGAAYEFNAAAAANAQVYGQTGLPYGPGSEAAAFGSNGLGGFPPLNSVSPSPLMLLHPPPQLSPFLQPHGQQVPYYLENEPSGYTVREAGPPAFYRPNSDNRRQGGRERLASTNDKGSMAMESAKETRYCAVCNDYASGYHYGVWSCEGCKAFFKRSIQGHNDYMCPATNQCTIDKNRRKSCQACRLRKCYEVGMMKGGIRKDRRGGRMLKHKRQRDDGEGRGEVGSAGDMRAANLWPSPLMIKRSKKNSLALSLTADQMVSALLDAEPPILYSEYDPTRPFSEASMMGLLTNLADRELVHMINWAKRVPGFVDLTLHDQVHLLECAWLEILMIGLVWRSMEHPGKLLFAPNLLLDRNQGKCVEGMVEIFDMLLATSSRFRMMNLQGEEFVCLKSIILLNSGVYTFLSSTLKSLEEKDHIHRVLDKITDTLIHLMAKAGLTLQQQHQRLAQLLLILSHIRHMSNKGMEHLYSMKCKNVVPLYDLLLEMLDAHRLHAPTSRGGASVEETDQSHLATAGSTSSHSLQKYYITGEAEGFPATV

[15] = qHTS assay for identifying genotoxic compounds that show differential cytotoxicity against isogenic chicken DT40 cell lines with known DNA damage response pathways - wild type cell line (AID 743012); conditions: DT40 wild type chicken cells viability, CellTiter-Glo, 40 h; activity change, negative = cytotoxicity: at 68.4 µM (top of the series) unless noted; further: nearly all actives have a fitted effect of over 60% in size; further: potency means the concentration at half of the fitted maximal effect
Summary of the method: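 Wild-type DT40 cells (300/well) exposed to compounds for 40 hours at 37 C/5% CO2. Viability read by CellTiter-Glo luminescence after 30 min at room temperature.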

[16] = qHTS assay to identify small molecule antagonists of the androgen receptor (AR) signaling pathway using the MDA cell line - cell viability counter screen (AID 743041; further: nearly all actives have a fitted effect of over 45% in size; further: potency means the concentration at half of the fitted maximal effect); conditions: MDA-kb2 viability, CellTiter-Fluor, 16 h, cells co-treated with R1881 androgen agonist; viability change, negative = cytotoxic: at 70.3 µM (top of the series)
Summary of the method: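 Cells were plated at 3,000 per well and left 5 h. Compounds in DMSO were then pinned in, followed by R1881. After 16 h at 37C, CellTiter-Fluor fluorescence gave viability.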

[17] = qHTS assay to identify small molecule antagonists of the estrogen receptor alpha (ER-alpha) signaling pathway using the BG1 cell line - cell viability counter screen (AID 743081); conditions: BG1Luc4E2 viability, CellTiter-Fluor, 22 h; activity change, negative = cytotoxicity: at 70.3 µM (top of the series) unless noted;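 further: compound given together with 17beta-estradiol as the ER stimulus; on the % scale 0 is the no-effect control and ±100 the full control effect; nearly all actives have a fitted effect of over 45% in size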
[18] = qHTS assay to identify small molecule antagonists of the glucocorticoid receptor (GR) signaling pathway - cell viability counter screen (AID 720693); conditions: GR-bla HeLa viability, CellTiter-Glo luminescence, 18 h, with 5 nM dexamethasone present; viability change, negative = cytotoxic: at 58.5 µM (top of the series)
[19] = target: Aryl hydrocarbon receptor (Homo sapiens) (UniProt P35869); test: qHTS assay to identify small molecule that activate the aryl hydrocarbon receptor (AhR) signaling pathway (AID 743085);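 further: HG2L7.5c1 human HepG2 liver cells with stably integrated DRE-driven firefly reporter; on the % scale 0 is the no-effect control and ±100 the full control effect; nearly all actives have a fitted effect of over 15% in size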
Chain of UniProt P35869 (P35869 whole entry, looked up): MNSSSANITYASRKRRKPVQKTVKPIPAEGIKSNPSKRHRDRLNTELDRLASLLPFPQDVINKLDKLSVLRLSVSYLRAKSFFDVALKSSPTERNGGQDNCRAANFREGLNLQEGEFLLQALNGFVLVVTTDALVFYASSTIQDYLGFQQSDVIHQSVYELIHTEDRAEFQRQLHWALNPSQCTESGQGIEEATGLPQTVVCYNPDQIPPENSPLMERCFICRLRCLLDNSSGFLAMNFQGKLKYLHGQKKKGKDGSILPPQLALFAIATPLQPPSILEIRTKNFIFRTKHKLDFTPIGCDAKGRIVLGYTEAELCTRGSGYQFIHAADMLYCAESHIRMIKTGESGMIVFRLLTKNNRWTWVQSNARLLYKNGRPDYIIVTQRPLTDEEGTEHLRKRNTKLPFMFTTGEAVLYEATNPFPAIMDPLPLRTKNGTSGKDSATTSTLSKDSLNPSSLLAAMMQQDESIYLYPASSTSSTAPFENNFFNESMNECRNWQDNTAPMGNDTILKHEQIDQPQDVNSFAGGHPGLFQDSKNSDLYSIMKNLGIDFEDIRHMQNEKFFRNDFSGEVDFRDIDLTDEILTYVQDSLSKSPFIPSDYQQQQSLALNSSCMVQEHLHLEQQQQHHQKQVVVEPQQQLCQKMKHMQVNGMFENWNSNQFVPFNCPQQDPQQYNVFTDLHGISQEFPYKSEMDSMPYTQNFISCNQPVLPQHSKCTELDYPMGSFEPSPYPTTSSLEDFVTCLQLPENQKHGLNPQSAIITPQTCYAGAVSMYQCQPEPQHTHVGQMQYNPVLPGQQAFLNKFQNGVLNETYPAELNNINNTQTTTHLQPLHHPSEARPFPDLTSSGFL
Summary of the method: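 HepG2 cells stably carrying a 20-DRE firefly luciferase reporter (HG2L7.5c1) treated with compound for 24 hr at 37C. Luciferase read by ONE-Glo luminescence, with CellTiter-Fluor viability read first.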

[20] = target: Estrogen receptor (Homo sapiens) (UniProt P03372); test: qHTS assay to identify small molecule antagonists of the estrogen receptor alpha (ER-alpha) signaling pathway (AID 743069; active means well fitted curve in the direction sought with a large enough effect in the signal ratio in the repeat runs, not every such curve was filed as active; inconclusive means weak or mixed curves, or effect the other way; inactive means no such curve, though single readings can be large or run the other way; the % refers to the signal ratio; further: on the % scale 0 is the no-effect control and ±100 the full control effect); conditions: HEK293 ER-alpha-UAS-bla, beta-lactamase ratio, antagonist mode; activity, negative = inhibition: at 69.4 µM (top of the series) unless noted
Summary of the method: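 ER-alpha-UAS-bla GripTite HEK293 line; 2% charcoal-stripped FBS overnight; plated, 4 hr 37C/5% CO2; cpd in DMSO + 17beta-estradiol, 18 hr 37C; LiveBLAzer B/G FRET substrate 2 hr RT; fluorescence intensity.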

[21] = target: Androgen receptor (Homo sapiens) (UniProt P10275); test: qHTS assay to identify small molecule agonists of the androgen receptor (AR) signaling pathway (AID 743036; active means well fitted activation curve with a large enough effect in the signal ratio in the repeat runs, with a control signal flat, not every such curve was filed as active; inconclusive means weak or mixed curves, or effect the other way; inactive means no such curve, though single readings can be large or run the other way; the % refers to the signal ratio; further: potency means the concentration at half of the fitted maximal effect); conditions: HEK293 AR-UAS-bla GripTite, beta-lactamase FRET ratio, 16 h; activation: at 62.4 µM (top of the series) unless noted
Summary of the method: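 AR-UAS-bla HEK293 cells, plated 4 h before dosing, were treated with compound for 16 h at 37C. beta-Lactamase reporter read after 2 h with LiveBLAzer B/G FRET substrate at room temperature.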
Tags describe the fitted curve by direction and shape or compound fluorescence and quenching.

COc1cc(Br)c(C[N+]2(CCOCCC3CCC4CC3C4(C)C)CCOCC2)cc1OC (stereo not given)
inactive: Potency [10] | Potency [11]
inconclusive: Potency [1] 33.5 µM [falling, single point] | Potency [2] 29.8 µM [inhibitor] | activity change, negative = inhibition [3] -56% | Potency [5] 26.8 µM [falling, single point] | Potency [6] 33.5 µM [inhibitor, single point] | Potency [7] 33.5 µM [cytotoxic, single point] | Potency [8] 33.5 µM [inhibitor, single point] | Potency [9] 26.6 µM [inhibitor, partial curve, poor fit] | Potency (Aromatase (Homo sapiens)) 9.44 µM [inhibitor, partial curve, poor fit]
active: Potency [4] 2.66 µM

CCCCCCOC(=O)c1cccnc1
inconclusive: Potency [13] 21.3 µM [rising, partial curve, poor fit]
inactive: Potency [1] | Potency [2] | Potency [12] | Potency [4] | Potency [14] | Potency [11]

CC[C@@H](C)CCCCC(=O)N[C@H](CCN)C(=O)N[C@@H](C(=O)N[C@H](CCN)C(=O)N[C@@H]1CCNC(=O)C([C@@H](C)O)NC(=O)[C@@H](CCN)NC(=O)[C@@H](CCN)NC(=O)[C@@H](CC(C)C)NC(=O)[C@@H](Cc2ccccc2)NC(=O)[C@@H](CCN)NC1=O)[C@@H](C)O (stereo partly drawn) (X2-[dDab][d(aThr)][dDab][dDab][dDab][dF][dL][dDab][dDab][ξThr(3R)]; lactam 4-C)
inactive: Potency [2] | Potency [7]
inconclusive: Potency [1] 11.9 µM [fluorescent] | Potency [12] 13.3 µM [cytotoxic, single point] | Potency [8] 11.9 µM [inhibitor, single point]

OCC(O)COc1ccc(Cl)cc1 (stereo not given)
inconclusive: Potency [13] 15.1 µM [rising, single point]
inactive: Potency [1] | Potency [2] | Potency [3] | Potency [15] | Potency [12] | Potency [5] | Potency [16] | Potency [7] | Potency [11]

O=C(O)C1CCCN1 (stereo not given)
inconclusive: activation [1] -2.1% | Potency [13] 0.134 µM [rising, full curve, poor fit]
inactive: Potency [2] | Potency [3] | Potency [12] | Potency [8]

CC(=O)N[C@@H]([C@@H](O)[C@H](O)[C@H](O)CO)[C@@H](O)CC(=O)C(=O)O
inconclusive: Potency [1] 2.98 µM [falling, single point]
inactive: Potency [2] | Potency [12] | Potency [17]

CCCCCCCCCCCCCCCC(=O)OC[C@@H](COP(=O)([O-])OCC[N+](C)(C)C)OC(=O)CCCCCCCCCCCCCCC
inconclusive: Potency [18] 6.01 µM [rising, single point] | Potency [12] 33.5 µM [cytotoxic, partial curve, poor fit] | Potency [16] 0.075 µM [rising, partial curve, poor fit] | Potency [13] 5.35 µM [cytotoxic, partial curve, poor fit]
active: Potency [14] 29.8 µM
inactive: Potency [1] | Potency [2] | Potency [19] | Potency [11]

NS(=O)(=O)c1cc2c(cc1Cl)NC(Cc1ccccc1)NS2(=O)=O (stereo not given)
inactive: Potency [12] | Potency [20] | Potency [11]
inconclusive: Potency [1] 1.19 µM [rising, single point] | ratio activity, negative = MMP loss [2] -22.5%

COc1ccc(-c2noc(CC(=O)O)c2-c2ccc(OC)cc2)cc1
inactive: Potency [1] | Potency [7]
inconclusive: Potency [2] 1.11 µM [activator, full curve] | Potency [15] 33.5 µM [rising, partial curve, poor fit] | Potency [12] 29.8 µM [rising, partial curve, poor fit] | Potency [21] 8.49 µM [rising, partial curve] | activation [11] 4.87%

COc1cc(S(C)=O)ccc1-c1nc2ncccc2[nH]1 (stereo not given)
inactive: Potency [1] | Potency [2] | Potency [3] | Potency [7]
inconclusive: Potency [13] 26.8 µM [rising, single point]
